According to US8071103B2, “Pharmaceutical composition comprising a human GLP-1 mimetibody” (Centocor, Inc., priority 2006, dated 2011):

Experiments:
GLP-1R = biological target: T1, GLP-1R (Homo sapiens, UniProt P43220); experiment: FACS binding assay; conditions: flow cytometry
T1 construct: expressed in transfected cells; host or cells: HEK293
Experimental: FACS Binding Assay. The activity of a GLP-1 mimetibody was tested in an in vitro FACS binding assay. To determine whether the GLP-1 MMB binds the GLP-1R, HEK293 cells (1×10^6 cells) over-expressing the GLP-1 R were incubated with GLP-1 MMB of SEQ ID NO: 69 (20 nM) for 2 hours at 4° C. The cells were washed, and a fluorescently labeled secondary detection antibody (1 μg/mL goat anti-human IgG, Fc gamma specific) was added for 30 minutes at 4° C. The fluorescence intensity of the cells was monitored via flow cytometry.

DPP-IV = biological target: T2, DPP-IV (Homo sapiens, UniProt P27487); experiment: DPP-IV cleavage assay; format: in vitro ADME; conditions: 1.2 nM, DPP-IV 1 μg/mL, room temperature, 0-40 minutes
T2 construct: purchased R&D Systems
Experimental: DPP-IV cleavage assay. Since GLP-1 is rapidly inactivated by DPP-IV, an in vitro assay was established to quantitate intact (i.e. uncleaved) GLP-1 MMB of SEQ ID NO: 69. Briefly, GLP-1 MMB of SEQ ID NO: 69 or peptide (1.2 nM) was incubated at room temperature with DPP-IV (1 μg/mL, R&D Systems). After various times (0, 5, 10, 15, 20, 30, 40 minutes), a DPP-IV inhibitor (100 μM, Linco) was added to quench the reaction. The amount of intact GLP-1 MMB of SEQ ID NO: 69 or peptide was measured using the GLP-1 Active ELISA (Linco) and the GLP-1 MMB of SEQ ID NO: 69 or peptides for the respective standard curves.

T1 sequence (P43220 24-463, species assumed): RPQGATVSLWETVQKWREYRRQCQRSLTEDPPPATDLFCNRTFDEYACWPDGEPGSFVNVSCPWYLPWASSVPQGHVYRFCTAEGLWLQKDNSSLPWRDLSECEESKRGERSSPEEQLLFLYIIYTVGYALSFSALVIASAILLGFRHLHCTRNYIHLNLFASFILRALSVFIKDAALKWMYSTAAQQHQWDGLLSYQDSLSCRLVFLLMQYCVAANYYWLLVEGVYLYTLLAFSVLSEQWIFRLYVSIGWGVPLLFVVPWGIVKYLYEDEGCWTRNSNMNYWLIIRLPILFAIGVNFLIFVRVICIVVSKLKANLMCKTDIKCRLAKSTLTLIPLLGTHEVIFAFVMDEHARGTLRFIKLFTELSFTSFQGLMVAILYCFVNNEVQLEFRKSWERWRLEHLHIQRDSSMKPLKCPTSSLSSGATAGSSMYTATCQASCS
T2 sequence (P27487 whole entry, species assumed): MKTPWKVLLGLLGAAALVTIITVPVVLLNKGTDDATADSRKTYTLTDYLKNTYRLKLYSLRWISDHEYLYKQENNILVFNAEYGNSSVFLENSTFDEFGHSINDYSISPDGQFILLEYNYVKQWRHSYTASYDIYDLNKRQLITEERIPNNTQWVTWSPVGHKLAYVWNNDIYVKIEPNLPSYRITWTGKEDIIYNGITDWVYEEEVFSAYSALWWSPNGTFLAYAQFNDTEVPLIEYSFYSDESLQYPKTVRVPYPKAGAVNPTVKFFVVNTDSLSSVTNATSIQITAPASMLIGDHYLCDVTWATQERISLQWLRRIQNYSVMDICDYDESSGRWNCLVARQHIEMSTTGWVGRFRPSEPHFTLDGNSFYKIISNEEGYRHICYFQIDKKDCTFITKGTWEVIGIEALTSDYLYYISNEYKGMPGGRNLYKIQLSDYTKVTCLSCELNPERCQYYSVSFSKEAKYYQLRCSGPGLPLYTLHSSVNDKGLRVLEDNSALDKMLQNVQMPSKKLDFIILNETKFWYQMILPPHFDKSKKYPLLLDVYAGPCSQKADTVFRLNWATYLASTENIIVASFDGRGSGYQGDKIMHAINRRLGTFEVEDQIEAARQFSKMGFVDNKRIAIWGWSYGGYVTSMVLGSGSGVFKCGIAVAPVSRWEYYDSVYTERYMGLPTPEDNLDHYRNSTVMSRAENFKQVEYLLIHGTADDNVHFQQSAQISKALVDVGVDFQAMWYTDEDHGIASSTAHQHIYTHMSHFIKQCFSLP

binding to control HEK293 cells (GLP-1R): does not bind
B1: GLP-1 MMB of SEQ ID NO: 69: wild-type GLP-1 sequence incorporated into a mimetibody scaffold (protein)
chain: HAEGTFTSDVSSYLEGQAAKEFIAWLVKGRGGGSGGGSGTLVTVSS[human IgG4 Fc with S228P F234A L235A (EU numbers) omitted]
resistance to cleavage by DPP-IV relative to the GLP-1 peptide (DPP-IV): significantly more resistant
